# T1: DnaJ with the biotin carboxyl carrier protein (BCCP) fused at the C-terminus (E. coli, UniProt P08622 1-376)
# T1 sequence (looked up): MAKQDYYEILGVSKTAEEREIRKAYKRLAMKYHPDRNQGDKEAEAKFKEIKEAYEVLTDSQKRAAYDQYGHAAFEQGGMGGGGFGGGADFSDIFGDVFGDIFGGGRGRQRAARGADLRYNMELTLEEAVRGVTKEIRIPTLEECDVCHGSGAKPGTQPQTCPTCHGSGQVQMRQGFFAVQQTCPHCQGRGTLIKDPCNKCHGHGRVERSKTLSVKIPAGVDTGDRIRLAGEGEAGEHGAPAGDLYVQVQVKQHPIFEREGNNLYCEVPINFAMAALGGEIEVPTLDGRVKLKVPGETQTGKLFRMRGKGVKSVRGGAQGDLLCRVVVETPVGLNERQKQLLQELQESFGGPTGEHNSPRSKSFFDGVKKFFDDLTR
# Target: T1, DnaJ with the biotin carboxyl carrier …
# Assay: SPR
row,Binder,SPR signal relative to WT DnaK [%]
1,DnaK L390A (natural protein) not shown,~10
2,DnaK L391A (natural protein) not shown,~10
3,DnaK V389D (natural protein) not shown,~10
